In PubChem BioAssay AID624296 (National Center for Advancing Translational Sciences (NCATS), 2012):
Screen size: about 350,000 compounds; about 9,900 (2.8%) were called active. The shares of active, inactive and inconclusive entries below differ from those in the screen. The call rests on the fitted dose curve; in most records, active means well fitted activation curve with a large enough effect; inconclusive means small, poorly fitted or top-dose-only effect; inactive means no such curve, though single readings can be large or run the other way. Potencies of inconclusive entries are left out as doubtful fits.

Assay: A quantitative high throughput screen for small molecules that induce DNA re-replication in MCF 10a normal breast cells. Further: nearly all actives have a fitted effect of over 50% in size. On activity, positive = re-replication: % of control where 0% means no effect.
Settings: MCF 10A DNA re-replication, Hoechst nuclear intensity, 48 h; series mostly up to 46.1 µM; activity, positive = re-replication: at the top concentration
Potency means the concentration at half of the fitted maximal effect; tags describe the fitted curve by direction and shape.

SMILES | Potency | activity, positive = re-replication
COc1ccc(-c2nc(N)nc(C)c2Oc2ccccc2Br)c(O)c1 | active: 14.6 µM | 
COc1ccc(-n2c(=S)[nH]c3cc(C(=O)NC4CCCCC4)ccc3c2=O)c(OC)c1 | inconclusive [activator, partial curve, poor fit] | 
COc1ccc(OC)c(S(=O)(=O)Nc2c(C)nn(C)c2C)c1 |  | inactive: 2.29%
CNS(=O)(=O)c1cccc2nsnc12 |  | inactive: -3.08%
O=C1CC(c2ccccc2)CC(=O)N1c1ccc(C(F)(F)F)cc1 | inconclusive [activator, single point] | 
CCN(C(=O)CSc1cc(C)c2ccc(OC)cc2n1)C1CCS(=O)(=O)C1 (stereo unspecified) |  | inactive: 4.81%
O=C(NCc1ccccn1)C1CCCN(S(=O)(=O)c2cc(Cl)ccc2Cl)C1 (stereo unspecified) | active: 0.731 µM | 
CCOc1ccc(NC(=O)Nc2ccc(N(C)C(C)=O)cc2)cc1 | inconclusive [activator, partial curve, poor fit] | 
O=C1CC(c2cccc(Br)c2)c2cc3c(cc2N1)CCC3 (stereo unspecified) | inconclusive [activator, full curve, poor fit] | 
COc1ccnc(Oc2ccccc2)c1C(N)=O |  | inactive: 0.747%
CC(C)(C)c1ccc(OCc2ccc(C(=O)N/N=C/c3ccc([N+](=O)[O-])cc3)o2)cc1 | inconclusive [activator, single point] | 
COc1ccc2sc(N(CCCN(C)C)C(=O)c3ccc(S(=O)(=O)N4CCCc5ccccc54)cc3)nc2c1 | inconclusive [activator, single point] | 
CCCOC(=O)c1ccc(Oc2cn[nH]c2-c2ccc(OC)cc2O)cc1 | inconclusive [activator, single point] | 
Cn1cc([C@@H]2C[C@H]3CN(Cc4cccc(Cl)c4)C(=O)[C@]34CCCN24)c(-c2ccccc2)n1 | inconclusive [activator, single point] | 
O=C(Nc1ccc(Cl)cc1)c1cc2c(cc1O)[nH]c1ccccc12 | active: 4.61 µM | 
CC1CC(C)CN(C(=O)c2ccccc2Nc2ccc(SC(F)F)cc2)C1 (stereo unspecified) | inconclusive [activator, single point] | 
CCC1CCCCN1C(=O)COc1ccc(S(=O)(=O)N2CCOCC2)cc1Cl (stereo unspecified) |  | inactive: 11.3%
COc1cc(C2NC(=S)NC(C)=C2C(=O)OC(C)C)ccc1OC(C)C (stereo unspecified) | inconclusive [activator, partial curve, poor fit] | 
CCCCOc1ccc(Br)cc1/C(C)=N/NC1=NCCN1 | active: 10.3 µM | 
COc1cccc(C(c2c(NC(=O)c3ccccc3)sc(C)c2C)N2CCN(C)CC2)c1 (stereo unspecified) |  | inactive: 12.6%
O=C(NC1=NCCS1)c1ccc(Cl)c(Cl)c1 |  | inactive: 0.571%
CCOC(=O)CSc1nnc(-c2ccc([N+](=O)[O-])cc2)o1 | inconclusive [activator, single point] | 
Cc1sc2nc(SCC(=O)N3CCN(CCO)CC3)n(-c3ccccc3)c(=O)c2c1C |  | inactive: 14.3%
O=C(NCC(c1ccco1)N1CCCCC1)c1ccc(OCc2ccccc2)cc1 (stereo unspecified) |  | inactive: 7.9%

SMILES | Potency | activity, positive = re-replication
N#CCC(=O)Nc1ccc(C(=O)OCc2ccccc2Oc2ccccc2)cc1 | active: 20.6 µM | 
CCOc1ncccc1C(=O)Nc1ccc(C)c(S(=O)(=O)N2CCCCCC2)c1 | active: 9.2 µM | 
CN(C)CCNc1nc(-c2ccccc2)c2c(c1C#N)CC(C)(C)OC2 |  | inactive: 5.41%
CCOC(=O)c1[nH]c(C)c(C(=O)OCC(=O)NCc2ccc(Cl)cc2)c1C |  | inactive: 0.274%
COc1ccc(NC(=O)C(=O)c2cn(CC(=O)N3CCCC3)c3ccccc23)cc1 | inconclusive [activator, single point] | 
O=C(Cc1ccccc1)N/N=C/c1ccc(OC(=O)/C=C\c2ccco2)cc1 | inconclusive [activator, single point] | 
COc1cc(CCNC2=CC(=O)c3ncccc3C2=O)ccc1O | inconclusive [activator, full curve] | 
CSc1ccc(C(=O)NC2CCSc3ccccc32)cc1 (stereo unspecified) | inconclusive [activator, single point] | 
CCC12C(=Nc3c(Cl)cccc31)C[C@@H]1CCN3C(=O)CCC[C@H]2[C@H]13 (stereo partly specified) | inconclusive [activator, single point] | 
CCOC(=O)c1c(NC(=O)CSc2nc3cccnc3n2C)sc(C(C)=O)c1C | inconclusive [activator, full curve, poor fit] | 
CCCCn1c(Nc2ccc(OC)cc2)nc2ccccc21 |  | inactive: 0.2%
Cc1nn(-c2ccccc2)c(N2CCCC2)c1/C=N/Nc1ccc(S(=O)(=O)Nc2ccccc2)cc1[N+](=O)[O-] | inconclusive [activator, full curve] | 
CCN(CC)S(=O)(=O)c1ccc(NC(=O)c2cccnc2Cl)c(NC(=O)c2cccnc2Cl)c1 | active: 18.4 µM | 
COc1cc(NC(=O)c2c(Cl)cnn2C)c(OC)cc1Cl | inconclusive [activator, single point] | 
C/C(=N\O)C(=O)C(CN1CCCCC1)CN1CCCCC1 | inconclusive [activator, single point] | 
C=CCNC(=S)N/N=C/c1ccc(-c2ccc(OC)cc2)o1 | active: 20.6 µM | 
O=C(NCCCN1CCOCC1)c1cnn2c(-c3ccccc3)cc(-c3ccccc3)nc12 | inconclusive [activator, single point] | 
Cc1ccc(NC(=O)CCN2CCN(C/C=C/c3ccccc3)CC2)cc1C | inconclusive [activator, single point] | 
CCn1c(COc2ccccc2)nnc1SCC(=O)CC(=O)Nc1ccccc1OC |  | inactive: 28.6%
Cc1ccc(C(=O)NC(C)C2CC3CCC2C3)cc1 (stereo unspecified) | inconclusive [activator, full curve, poor fit] | 
O=C1CCC/C(=N/NC(=O)c2ccc(CN3c4cccc5cccc(c45)S3(=O)=O)cc2)C1 | inconclusive [activator, partial curve, poor fit] | 
CC(C)c1ccc(/C=C/C(=O)n2nnc3ccccc32)cc1 | inconclusive [activator, partial curve, poor fit] | 
COC(=O)N1C(=O)[C@@](c2ccc(OC)cc2)(C(C)C)N1C(=O)OC | inconclusive [activator, single point] | 
COc1ccc(-n2c(C)nc3c(cnn3-c3ccc(Cl)cc3)c2=O)cc1 |  | inactive: -0.467%

SMILES | Potency | activity, positive = re-replication
CCn1nc(NC(=O)Cc2ccc(OC)cc2)c2cc3cc(C)ccc3nc21 | active: 1.84 µM | 
Clc1ccc(Nc2nc(C3CC3)cs2)cc1 |  | inactive: 17.3%
COCCCN(C(=O)c1ccco1)c1nc(-c2ccc(OC)cc2)cs1 | inconclusive [activator, single point] | 
CCc1ccc(/C=N/n2c(C3CCCCC3)n[nH]c2=S)cc1 | inconclusive [activator, single point] | 
COc1ccccc1CNC(=O)C1CCCN(c2cnccn2)C1 (stereo unspecified) | inconclusive [activator, single point] | 
COc1ccc(C2CC(c3ccc(Br)cc3)=NN2C(=O)CSC2=NCCS2)cc1 (stereo unspecified) |  | inactive: 19%
CN(C)c1ccc2cc(S(=O)(=O)O)cc(O)c2c1 | inconclusive [activator, partial curve] | 
COc1ccc(C2CC(=O)Nc3cc(C)c(C)cc32)c(OC)c1OC (stereo unspecified) |  | inactive: 0.878%
O=C(Nc1cc(C(F)(F)F)ccc1N1CCCCC1)c1cccc([N+](=O)[O-])c1 | inconclusive [activator, partial curve, poor fit] | 
COc1ccc(NC(=O)CC2C(=O)N(Cc3ccccc3)C(=S)N2CCN2CCOCC2)cc1 (stereo unspecified) |  | inactive: 10.1%
Cc1ccc(NC2CCCN(C(=O)c3cc(C(C)C)[nH]n3)C2)cc1C (stereo unspecified) |  | inactive: 0.263%
COCCNC(=O)C(C#N)c1nc2ccccc2nc1N1CCCCCC1 (stereo unspecified) | inconclusive [activator, single point] | 
Cc1ccccc1NC(=S)N(C)Cc1cccs1 |  | inactive: 0.0276%
COc1ccc(Cl)c2sc(N3CCN(C(=O)c4ccco4)CC3)nc12 |  | inactive: 9.95%
CN(CCCN1CCOCC1)Cc1nc(-c2ccccc2)no1 | inconclusive [activator, full curve, poor fit] | 
CCCC[C@@H]1CNC(=S)N1CCCC | inconclusive [activator, partial curve, poor fit] | 
COc1cc2c(=O)n(Cc3ccccc3)c(=O)n(CC(=O)NCCc3ccccc3)c2cc1OC | inconclusive [activator, single point] | 
Cc1ccc(NC2=C(Cl)C(=O)OC2OC(=O)c2ccco2)cc1 (stereo unspecified) | inconclusive [activator, partial curve, poor fit] | 
C=CCOc1nc2c(c(=O)n(C)c(=O)n2C)n1Cc1ccccc1 |  | inactive: -1.35%
COc1cc(NS(C)(=O)=O)c(OC)cc1NC(=O)c1cccc(F)c1 | inconclusive [activator, partial curve, poor fit] | 
CCNC(=S)Nc1ccc(N(c2ccccc2)C(C)C)cc1 | inconclusive [activator, partial curve, poor fit] | 
CS(=O)(=O)N(C(=O)NC(=O)NC12CC3CC(CC(C3)C1)C2)C1CCCCC1 | inconclusive [activator, partial curve, poor fit] | 
CCOC(=O)C1=C(c2ccccc2)ON(C)C1c1ccccc1 (stereo unspecified) | inconclusive [activator, partial curve] | 
